# Reference: the supplement of paper PMC8728848
# Some of the results follow.
# Legend:
# Test in all cases: glycan array binding signal (z-score within array); higher = stronger binding
# Conditions in all cases: glycan notation: IUPAC condensed, linker removed
# [1] = target: Fuc(a1-2)[Gal(a1-3)]Gal(b1-4)GlcNAc(b1-2)Man(a1-3)[Fuc(a1-2)[Gal(a1-3)]Gal(b1-4)GlcNAc(b1-2)Man(a1-6)]Man(b1-4)GlcNAc(b1-4)GlcNAc
# How it was run: (§1)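 Columns mapping to the same glycan were averaged after glycan names were converted to IUPAC-condensed notation. The data come from 3228 arrays in the Consortium for Functional Glycomics database, limited to those with an available protein sequence. Binding is reported as a within-array Z-score averaged across arrays of one protein sequence and across linkers.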
# [2] = target: Fuc(a1-2)[Gal(a1-3)]Gal(b1-4)[Fuc(a1-3)]GlcNAc
# How it was run: as §1
# [3] = target: Fuc(a1-2)[Gal(a1-4)]Gal(b1-4)GlcNAc
# How it was run: as §1
# [4] = target: Fuc(a1-2)[GalNAc(a1-3)]Gal
# How it was run: as §1
# [5] = target: Fuc(a1-2)[GalNAc(a1-3)]Gal(b1-3)GlcNAc
# How it was run: as §1
# [6] = target: Fuc(a1-2)[GalNAc(a1-3)]Gal(b1-3)GlcNAc(b1-2)Man(a1-3)[Fuc(a1-2)[GalNAc(a1-3)]Gal(b1-3)GlcNAc(b1-2)Man(a1-6)]Man(b1-4)GlcNAc(b1-4)GlcNAc
# How it was run: as §1
# [7] = target: Fuc(a1-2)[GalNAc(a1-3)]Gal(b1-4)Glc
# How it was run: as §1
# [8] = target: Fuc(a1-2)[GalNAc(a1-3)]Gal(b1-4)GlcNAc
# How it was run: as §1
# [9] = target: Fuc(a1-2)[GalNAc(a1-3)]Gal(b1-4)GlcNAc(b1-2)Man(a1-3)[GalNAc(a1-3)[Fuc(a1-2)]Gal(b1-4)GlcNAc(b1-2)Man(a1-6)]Man(b1-4)GlcNAc(b1-4)GlcNAc
# How it was run: as §1
# [10] = target: Fuc(a1-2)[GalNAc(a1-3)]Gal(b1-4)GlcNAc(b1-3)Gal(b1-4)GlcNAc
# How it was run: as §1
# [11] = target: Fuc(a1-2)[GalNAc(a1-3)]Gal(b1-4)GlcNAc(b1-3)Gal(b1-4)GlcNAc(b1-3)Gal(b1-4)GlcNAc
# How it was run: as §1
# [12] = target: Fuc(a1-2)[GalNAc(a1-3)]Gal(b1-4)[Fuc(a1-3)]GlcNAc
# How it was run: as §1
# [13] = target: Fuc(a1-2)[GalNAc(a1-4)]Gal(b1-4)GlcNAc
# How it was run: as §1
# [14] = target: Fuc(a1-2)[GalNAc(b1-3)]Gal
# How it was run: as §1
# Fuc(a1-3)GlcNAc = target: Fuc(a1-3)GlcNAc
# How it was run: as §1
# [15] = target: Fuc(a1-3)[Gal(b1-4)]Glc6S
# How it was run: as §1
# [16] = target: Fuc(a1-3)[Gal(b1-4)]GlcNAc
# How it was run: as §1
# [17] = target: Fuc(a1-3)[Gal(b1-4)]GlcNAc(b1-2)Man(a1-3)[Fuc(a1-3)[Gal(b1-4)]GlcNAc(b1-2)Man(a1-6)]Man(b1-4)GlcNAc(b1-4)GlcNAc
# How it was run: as §1
# [18] = target: Fuc(a1-3)[Gal(b1-4)]GlcNAc(b1-2)Man(a1-6)[Gal(b1-4)GlcNAc(b1-2)Man(a1-3)]Man(b1-4)GlcNAc(b1-4)GlcNAc
# How it was run: as §1
# [19] = target: Fuc(a1-3)[Gal(b1-4)]GlcNAc(b1-3)Gal(b1-3)[Fuc(a1-4)]GlcNAc
# How it was run: as §1
# [20] = target: Fuc(a1-3)[Gal(b1-4)]GlcNAc(b1-4)Gal(b1-4)[Fuc(a1-3)]GlcNAc
# How it was run: as §1
# [21] = target: Fuc(a1-3)[Gal(b1-4)]GlcNAc(b1-4)Gal(b1-4)[Fuc(a1-3)]GlcNAc(b1-4)Gal(b1-4)[Fuc(a1-3)]GlcNAc
# How it was run: as §1
# [22] = target: Fuc(a1-3)[Gal(b1-4)]GlcNAc6S
# How it was run: as §1
# [23] = target: Fuc(a1-3)[Gal3S(b1-4)]Glc6S
# How it was run: as §1
# [24] = target: Fuc(a1-3)[Gal3S(b1-4)]GlcNAc
# How it was run: as §1
# [25] = target: Fuc(a1-3)[Gal3S(b1-4)]GlcNAc6S
# How it was run: as §1
# [26] = target: Fuc(a1-3)[GalNAc(b1-4)]GlcNAc
# How it was run: as §1
# [27] = target: Fuc(a1-3)[Neu5Ac(a2-3)]Gal(b1-4)GlcNAc(b1-3)GalNAc
# How it was run: as §1
# Fuc(a1-4)GlcNAc = target: Fuc(a1-4)GlcNAc
# How it was run: as §1
# Fuc(b1-3)GlcNAc = target: Fuc(b1-3)GlcNAc
# How it was run: as §1
# Gal(a1-2)Gal = target: Gal(a1-2)Gal
# How it was run: as §1
# Gal(a1-3)Gal = target: Gal(a1-3)Gal
# How it was run: as §1
# Gal(a1-3)Gal(b1-3)GlcNAc = target: Gal(a1-3)Gal(b1-3)GlcNAc
# How it was run: as §1
# Gal(a1-3)Gal(b1-4)Glc = target: Gal(a1-3)Gal(b1-4)Glc
# How it was run: as §1
# Gal(a1-3)Gal(b1-4)GlcNAc = target: Gal(a1-3)Gal(b1-4)GlcNAc
# How it was run: as §1
# [28] = target: Gal(a1-3)Gal(b1-4)[Fuc(a1-3)]GlcNAc
# How it was run: as §1
# [29] = target: Gal(a1-3)Gal(b1-4)[Fuc(a1-3)]GlcNAc(b1-2)Man(a1-3)[Gal(a1-3)Gal(b1-4)[Fuc(a1-3)]GlcNAc(b1-2)Man(a1-6)]Man(b1-4)GlcNAc(b1-4)GlcNAc
# How it was run: as §1
# Gal(a1-3)GalNAc = target: Gal(a1-3)GalNAc
# How it was run: as §1
# [30] = target: Gal(a1-3)[Gal(a1-4)]Gal(b1-4)GlcNAc
# How it was run: as §1
# Gal(a1-4)Gal(b1-4)Glc = target: Gal(a1-4)Gal(b1-4)Glc
# How it was run: as §1
# Gal(a1-4)Gal(b1-4)GlcNAc = target: Gal(a1-4)Gal(b1-4)GlcNAc
# How it was run: as §1
# [31] = target: Gal(a1-4)Gal(b1-4)GlcNAc(b1-3)Gal(b1-4)Glc
# How it was run: as §1
# Gal(a1-4)GlcNAc = target: Gal(a1-4)GlcNAc
# How it was run: as §1
# Gal(a1-6)Glc = target: Gal(a1-6)Glc
# How it was run: as §1
# Gal(b1-2)Gal = target: Gal(b1-2)Gal
# How it was run: as §1
binder,measurement,setting,value
"StdA (Salmonella typhimurium), Q8Z3Z0 (protein) MAAAGMMYGASVFAADTTPTAGPFGSGKILFTGTITNSPCDIAPGDDAITVPFGQISYRKLNTANATTDSKPFTIHLQNCAFDPNETTIAGSAGKMSKVTVSFSGTADTSGKAYVSTGSAQHVGVQLLKGDNTSLITPNTPMPDGDAQQLQAGNNELNFFARLIALTDAATPGDVNASVTYTLKYL",glycan array binding signal (z-score),[1],-0.604
same,glycan array binding signal (z-score),[2],0.507
same,glycan array binding signal (z-score),[3],-0.437
same,glycan array binding signal (z-score),[4],0.692
same,glycan array binding signal (z-score),[5],0.337
same,glycan array binding signal (z-score),[6],-0.063
same,glycan array binding signal (z-score),[7],-0.441
same,glycan array binding signal (z-score),[8],-0.623
same,glycan array binding signal (z-score),[9],1.26
same,glycan array binding signal (z-score),[10],-0.306
same,glycan array binding signal (z-score),[11],1.22
same,glycan array binding signal (z-score),[12],0.068
same,glycan array binding signal (z-score),[13],-0.365
same,glycan array binding signal (z-score),[14],-0.126
same,glycan array binding signal (z-score),Fuc(a1-3)GlcNAc,0.132
same,glycan array binding signal (z-score),[15],1.41
same,glycan array binding signal (z-score),[16],0.14
same,glycan array binding signal (z-score),[17],0.457
same,glycan array binding signal (z-score),[18],-0.251
same,glycan array binding signal (z-score),[19],0.343
same,glycan array binding signal (z-score),[20],-0.624
same,glycan array binding signal (z-score),[21],-0.498
same,glycan array binding signal (z-score),[22],0.759
same,glycan array binding signal (z-score),[23],6.5
same,glycan array binding signal (z-score),[24],0.034
same,glycan array binding signal (z-score),[25],-0.434
same,glycan array binding signal (z-score),[26],-0.729
same,glycan array binding signal (z-score),[27],4.78
same,glycan array binding signal (z-score),Fuc(a1-4)GlcNAc,-0.427
same,glycan array binding signal (z-score),Fuc(b1-3)GlcNAc,-0.73
same,glycan array binding signal (z-score),Gal(a1-2)Gal,-0.199
same,glycan array binding signal (z-score),Gal(a1-3)Gal,-0.283
same,glycan array binding signal (z-score),Gal(a1-3)Gal(b1-3)GlcNAc,-0.688
same,glycan array binding signal (z-score),Gal(a1-3)Gal(b1-4)Glc,0.257
same,glycan array binding signal (z-score),Gal(a1-3)Gal(b1-4)GlcNAc,-0.552
same,glycan array binding signal (z-score),[28],-0.471
same,glycan array binding signal (z-score),[29],4.97
same,glycan array binding signal (z-score),Gal(a1-3)GalNAc,-0.564
same,glycan array binding signal (z-score),[30],-0.239
same,glycan array binding signal (z-score),Gal(a1-4)Gal(b1-4)Glc,-0.601
same,glycan array binding signal (z-score),Gal(a1-4)Gal(b1-4)GlcNAc,-0.386
same,glycan array binding signal (z-score),[31],-0.132
same,glycan array binding signal (z-score),Gal(a1-4)GlcNAc,-0.031
same,glycan array binding signal (z-score),Gal(a1-6)Glc,-0.53
same,glycan array binding signal (z-score),Gal(b1-2)Gal,-0.32
